# Experimental data: the supplement of paper PMC12067230
# Single values of this set are uncertain.
# Experiment: amyloid nucleation score relative to library mode (yeast Sup35 reporter selection) (log enrichment difference); higher = more amyloid nucleation; sequences are the first 22 residues of the Bri2 peptide extended by up to 12 random residues
# Details: random library (experiment): 2;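 active = nucleation score significantly above 0 at FDR 0.05; inactive = not significantly above 0 or absent from output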
# 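Also: [psi-pin-] Saccharomyces cerevisiae expressing SupN fusions, induced by 100 µM Cu2SO4, selected 7 d at 30 °C without adenine and uracil, scored by deep sequencing of output versus input.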
row,Sequence,amyloid nucleation score
1,EASNCFAIRHFENKFAVETLICLVSDVGDNKCMS,inactive
2,EASNCFAIRHFENKFAVETLICCILVIYMSLANL,inactive
3,EASNCFAIRHFENKFAVETLICNWLYSRWTRSVT,inactive
4,EASNCFAIRHFENKFAVETLICKGKPELLVLGMM,inactive
5,EASNCFAIRHFENKFAVETLICPYHFFFSYHRWF,2.22
6,EASNCFAIRHFENKFAVETLICMPGCLSIDRDKN,7.95
7,EASNCFAIRHFENKFAVETLICCDRESFIIWGSR,3.14
8,EASNCFAIRHFENKFAVETLICASGWMLDDWVIR,3.67
9,EASNCFAIRHFENKFAVETLICGRMNRVSVWSEG,-0.191
10,EASNCFAIRHFENKFAVETLICCLQGNNGALVDK,5.83
11,EASNCFAIRHFENKFAVETLICASVNESYYGTED,inactive
12,EASNCFAIRHFENKFAVETLICLRMHLPSQDSHM,2.95
13,EASNCFAIRHFENKFAVETLICFFSGVRVGGNLA,inactive
14,EASNCFAIRHFENKFAVETLICVWLIYKFTKWCV,3.52
15,EASNCFAIRHFENKFAVETLICKVESSMASFVCG,4.28
16,EASNCFAIRHFENKFAVETLICFSSNLIT,4.9
17,EASNCFAIRHFENKFAVETLICCGPNSDVMKRDT,4.96
18,EASNCFAIRHFENKFAVETLICDCFEYSHGYP,1.89
19,EASNCFAIRHFENKFAVETLICTRWHNFHLDTGT,3.9
20,EASNCFAIRHFENKFAVETLICIK,inactive
21,EASNCFAIRHFENKFAVETLICYRVPDDGQDSPV,inactive
22,EASNCFAIRHFENKFAVETLICEETCSWVDGKLW,inactive
23,EASNCFAIRHFENKFAVETLICDCLALTI,inactive
24,EASNCFAIRHFENKFAVETLICTSWLNAIWYKIA,inactive
25,EASNCFAIRHFENKFAVETLICYSVCFTVSYYRT,inactive
26,EASNCFAIRHFENKFAVETLICVPGTYNIADCG,inactive
27,EASNCFAIRHFENKFAVETLICRYIKHHYAKIWL,inactive
28,EASNCFAIRHFENKFAVETLICVHMEFCRSSAFM,6.14
29,EASNCFAIRHFENKFAVETLICGVL,2.85
30,EASNCFAIRHFENKFAVETLICCLCNCMEYLIKA,8.27

# Same assay, conditions: random library (experiment): 3
row,Sequence,amyloid nucleation score
1,EASNCFAIRHFENKFAVETLICGEQRLRKRGTVS,inactive
2,EASNCFAIRHFENKFAVETLICLCVVFTHWSPTY,inactive
3,EASNCFAIRHFENKFAVETLICPYRTTYMAGSWW,inactive
4,EASNCFAIRHFENKFAVETLICPYGLIRCLYPLM,0.73
5,EASNCFAIRHFENKFAVETLICVCCVMSTEEGLV,8.93
6,EASNCFAIRHFENKFAVETLICVSRWATW,inactive
7,EASNCFAIRHFENKFAVETLICEDMVRLHSHLWQ,3.17
8,EASNCFAIRHFENKFAVETLICLGELRKKVECLW,inactive
9,EASNCFAIRHFENKFAVETLICPSKGLCS,inactive
10,EASNCFAIRHFENKFAVETLICKGGNDWSPQGSE,inactive
11,EASNCFAIRHFENKFAVETLICRWTGHQMSREQD,0.419
12,EASNCFAIRHFENKFAVETLICRYLGAS,inactive
13,EASNCFAIRHFENKFAVETLICGMWTAWRMGLVQ,inactive
14,EASNCFAIRHFENKFAVETLICEEVVS,inactive
15,EASNCFAIRHFENKFAVETLICKAGMFGWGAVTA,inactive
16,EASNCFAIRHFENKFAVETLICTWGRGIRGAQLR,inactive
17,EASNCFAIRHFENKFAVETLICQIRHGLQFCRGP,inactive
18,EASNCFAIRHFENKFAVETLICVHAAIIITSPCD,inactive
19,EASNCFAIRHFENKFAVETLICWCYSRSWRSIEW,inactive
20,EASNCFAIRHFENKFAVETLICPVRWTRQAPEGW,4.69
21,EASNCFAIRHFENKFAVETLICFLRVVSFTHIA,inactive
22,EASNCFAIRHFENKFAVETLICMYVGRTENQERR,1.13
23,EASNCFAIRHFENKFAVETLICVCQLSFVMVACA,inactive
24,EASNCFAIRHFENKFAVETLICRRLVQ,inactive
25,EASNCFAIRHFENKFAVETLICAEEGSVGVTLLV,inactive
26,EASNCFAIRHFENKFAVETLICVRVM,0.461
27,EASNCFAIRHFENKFAVETLICDIQVNG,inactive
28,EASNCFAIRHFENKFAVETLICCVAS,5.86
29,EASNCFAIRHFENKFAVETLICCLDRKLSVCAG,1.19
30,EASNCFAIRHFENKFAVETLICAEVSCCKSDSYS,6.74
